Source: article PMC6203356, “HJURP antagonizes CENP-A mislocalization driven by the H3.3 chaperones HIRA and DAXX” (PLoS ONE, 2018)

Target: T1, CENP-A (endogenous, soluble pre-assembly fraction) (human (endogenous in SW480), UniProt P49450)
T1 construct: Histone H3 variant CENP-A, endogenous in human colon cancer cells (SW480); also called CENH3; CpA; source: endogenous, SW480 soluble fraction (PBS with 0.5% NP-40 supernatant)
Test: co-IP; CENP-A IP (ACA serum) or mock IP from the soluble fraction (PBS, 0.5% NP-40) of SW480 cells treated 72 hours with control or HJURP siRNA; Western blot for the chaperones
Conditions: partners not purified

T1 sequence (P49450 whole entry): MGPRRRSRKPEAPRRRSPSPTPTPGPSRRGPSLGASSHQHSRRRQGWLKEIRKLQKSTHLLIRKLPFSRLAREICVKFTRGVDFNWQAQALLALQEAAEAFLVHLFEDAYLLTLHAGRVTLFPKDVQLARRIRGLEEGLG

B1: DAXX (endogenous) (natural protein, human (endogenous in SW480))
chain: MATANSIIVLDDDDEDEAAAQPGPSHPLPNAASPGAEAPSSSEPHGARGSSSSGGKKCYKLENEKLFEEFLELCKMQTADHPEVVPFLYNRQQRAHSLFLASAEFCNILSRVLSRARSRPAKLYVYINELCTVLKAHSAKKKLNLAPAATTSNEPSGNNPPTHLSLDPTNAENTASQ[skipping about 200 residues]ERKKRRARLQGTSSHSADTPEASLDSGEGPSGMASQGCPSASRAETDDEDDEESDEEEEEEEEEEEEEATDSEEEEDLEQMQEGQEDDEEEDEEEEAAAGKDGDKSPMSSLQISNEKNLEPGKQISRSSGEQQNKGRIVSPSLLSEEPLAPSSIDAESNGEQPEELTLEEESPVSQLFELEIEALPLDTPSSVETDISSSRKQSEEPFTTVLENGAGMVSSTSFNGGVSPHNWGDSGPPCKKSRKEKKQTGSGPLGNSYVERQRSVHEKNGKKICTLPSPPSPLASLAPVADSSTRVDSPSHGLVTSSLCIPSPARLSQTPHSQPPRPGTCKTSVATQCDPEEIIVLSDSD
notes: DAXX, H3.3 chaperone, endogenous in SW480 cells; also called H3.3 chaperone DAXX; source: endogenous, SW480 soluble fraction
B1 was tested, and the “fold increase in the amount bound to CENP-A after HJURP knockdown against control siRNA” value was 1.5 fold.
